Assay results taken from article PMC7819943, “Rice protein-binding microarrays: a tool to detect cis-acting elements near promoter regions in rice”.
The other results are listed elsewhere or left out.

biological target: T1, OsWOX13 (Oryza sativa, UniProt Q5QMM3 1-267); test: protein-binding microarray (RPBM); PBS, 2% BSA, 51.3 ng/ul salmon testes DNA, 50 uM zinc acetate, 200 nM TF, 25 C, 1 h; high values mean tight binding; settings: protein: recombinant; tags: N-terminal polyhistidine and DsRed monomer fusion (pET32a); label: CyDye5-dUTP incorporated in the synthesized complementary strand; 3' TTTTT single-stranded linker to array surface; dsDNA, one strand shown
T1 sequence: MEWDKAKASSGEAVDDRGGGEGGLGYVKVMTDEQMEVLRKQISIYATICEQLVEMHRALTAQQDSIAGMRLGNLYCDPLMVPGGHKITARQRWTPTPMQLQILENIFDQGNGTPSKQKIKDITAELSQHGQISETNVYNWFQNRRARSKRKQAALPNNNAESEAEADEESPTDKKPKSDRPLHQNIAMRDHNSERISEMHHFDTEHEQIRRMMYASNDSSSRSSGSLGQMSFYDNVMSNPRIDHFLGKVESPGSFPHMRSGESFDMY
Outline: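 For the binding signal, per-feature fluorescence intensity was read in arbitrary units on an Axon 4000B scanner. Before scanning, a 2% BSA-blocked custom Agilent array made double-stranded with Cy5-dUTP was washed after 1 h at 25 °C with 200 nM protein and 50 µM zinc acetate. The proteins were Ni–NTA-purified transcription factors with N-terminal polyhistidine and DsRed fusions, expressed in E. coli BL21-CodonPlus.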

Row | Sequence | binding signal
1 | GCCAACTACCCTGTCACTCCTTCATAAATTTCCCTCACCTCGGAGTCACCTAGTGCAG | 3180 fluorescence intensity (a.u.)
2 | ATGATTTAATTACAAACAGATCCAGACTATGCCGTCGTGGCGGAGTCACCTAGTGCAG | 47400 fluorescence intensity (a.u.)
3 | TGTGTATTATGTATTAATTTGATGAGGTATATTCACCATCCGGAGTCACCTAGTGCAG | 5440 fluorescence intensity (a.u.)
4 | AAGCTTAATTAAACAAAACCGATGAGCTCCTGCTCTTTGGCGGAGTCACCTAGTGCAG | 15700 fluorescence intensity (a.u.)
5 | CCTTGACAACGAGAATTTCTTCCCACGTACTTGATCGACTCGGAGTCACCTAGTGCAG | 3350 fluorescence intensity (a.u.)
6 | ACACTAATCACCTGATAGATGAACTTAACAAATTCGCCATCGGAGTCACCTAGTGCAG | 25900 fluorescence intensity (a.u.)
7 | TGGATAATGGATTGGCTAATAGGGATTGGTACTTGCCGTCCGGAGTCACCTAGTGCAG | 10100 fluorescence intensity (a.u.)
8 | AATATCAAATCTCGTACAAATTAACTTATTTCATCACAGCCGGAGTCACCTAGTGCAG | 5130 fluorescence intensity (a.u.)
9 | ATGATTTTATATTCAAATTTTGTTTTAAAATAAGTACAATCGGAGTCACCTAGTGCAG | 3500 fluorescence intensity (a.u.)
10 | GAGCTCCAATTACCTCCATGTCATTTTATAACTAATAGAGCGGAGTCACCTAGTGCAG | 6770 fluorescence intensity (a.u.)
11 | TCTAATGAGCCTAATTAATCCATGATTAGCCTATGTGATGCGGAGTCACCTAGTGCAG | 45900 fluorescence intensity (a.u.)
12 | TCCAATTAAATTACATCAAGCATTCCCAACCTGCAGGTAGCGGAGTCACCTAGTGCAG | 18500 fluorescence intensity (a.u.)
13 | GTCACATCGTTCCAATTTCAATCAAAATTTCAATTTTAGCCGGAGTCACCTAGTGCAG | 4070 fluorescence intensity (a.u.)
14 | ATTTAATTATTACGAACACAACGGTGTAATTGGATCGTAGCGGAGTCACCTAGTGCAG | 33800 fluorescence intensity (a.u.)
15 | ATTAGACAAACAATAAGATTATTGGTAAAGAAAGTTGCAGCGGAGTCACCTAGTGCAG | 4230 fluorescence intensity (a.u.)
16 | TTCTAATTAGTGTCCAAACATCTGATGTGACAGGGACTAACGGAGTCACCTAGTGCAG | 33000 fluorescence intensity (a.u.)
17 | CCTCCCCTTTCATCGTCTCCAATCACCATCATCTGCACGTCGGAGTCACCTAGTGCAG | 3310 fluorescence intensity (a.u.)
18 | GGATGTAGCTTGATTGCTCGCCGTACGTCGTCGACATGTTCGGAGTCACCTAGTGCAG | 8620 fluorescence intensity (a.u.)
19 | ATTAATTAACGGTGTTTTGCATGCGAGTGCGACGCCGCAGCGGAGTCACCTAGTGCAG | 21100 fluorescence intensity (a.u.)
20 | CCTGATGAAAATAGACTCGGGCTTAGACTCTGCCGGTCTGCGGAGTCACCTAGTGCAG | 19100 fluorescence intensity (a.u.)
21 | TGGCTAACCATATAGCTTAGCCAGTGGGATGGAGATGCTGCGGAGTCACCTAGTGCAG | 17700 fluorescence intensity (a.u.)
22 | TGAAGTAATTGCACACAATAAGAAAATGGACTAAACATCACGGAGTCACCTAGTGCAG | 6750 fluorescence intensity (a.u.)
23 | AAATTCTAACAAGTAGTTAATTGATAGATAGCTTATGAGACGGAGTCACCTAGTGCAG | 42300 fluorescence intensity (a.u.)
24 | TGGTATATTAATTATTTCCTTTCCTTCCTTTCCCTTCCGACGGAGTCACCTAGTGCAG | 5690 fluorescence intensity (a.u.)
25 | TAAAATAATTTATAATATAAAACAGATGTGGTATTATATCCGGAGTCACCTAGTGCAG | 15100 fluorescence intensity (a.u.)
26 | CTTGTTACTAATGGGGCCAATCATGAAAGAAGTGCGGGAGCGGAGTCACCTAGTGCAG | 8990 fluorescence intensity (a.u.)
27 | AGTTTGTCATCATTGACTTTATTTGAAAGAGGCAAGGCCTCGGAGTCACCTAGTGCAG | 4870 fluorescence intensity (a.u.)

Row | Sequence | binding signal
28 | CTGATGTGATGACGCCATTTCGCTGACGATTTGTGCCGTTCGGAGTCACCTAGTGCAG | 6310 fluorescence intensity (a.u.)
29 | AATCAGTAATCACTGAGTCGTTACTGCTGCTTTCCGGTTGCGGAGTCACCTAGTGCAG | 3800 fluorescence intensity (a.u.)
30 | TATTATCAAATCATGGCGTAATTAGGCTCAAAAGATTCGTCGGAGTCACCTAGTGCAG | 15000 fluorescence intensity (a.u.)
31 | TTGAGATATAATTGCTACGTAAGTGCCACGTCAATGCCACCGGAGTCACCTAGTGCAG | 10300 fluorescence intensity (a.u.)
32 | CAAATTTTACAAAATTGCATGATCGAAGCAAACTTATAGCCGGAGTCACCTAGTGCAG | 3320 fluorescence intensity (a.u.)
33 | ATCTATATATTAACAATTAATTAATTAAGTACATGCATTTCGGAGTCACCTAGTGCAG | 15400 fluorescence intensity (a.u.)
34 | GGTTTCTAATTTGACAATTCATTTGAAAGCAATTGATAAACGGAGTCACCTAGTGCAG | 11200 fluorescence intensity (a.u.)
35 | TGTTAATTTGCGGTTAATGGAGTAAACAAGGATGTATTTGCGGAGTCACCTAGTGCAG | 44700 fluorescence intensity (a.u.)
36 | TAACAGATTAAATCTTGTTAAACTAGGATTAGCTTCGGTTCGGAGTCACCTAGTGCAG | 7480 fluorescence intensity (a.u.)
37 | GTTAATTGTAACTGAATTTCACCGGATGGAGTAAGAATAGCGGAGTCACCTAGTGCAG | 23600 fluorescence intensity (a.u.)
38 | TTAATTTTGTGCAAATCATCGAGCTGGGTGTTCAGTATTTCGGAGTCACCTAGTGCAG | 4610 fluorescence intensity (a.u.)
39 | TTGTGAGATGATGATTTAACATGCTTGTATTTTAAAAGCTCGGAGTCACCTAGTGCAG | 4200 fluorescence intensity (a.u.)
40 | ATTTTAAAAGGTTTGATTAGGAAAGAAGTCAGAACGAATTCGGAGTCACCTAGTGCAG | 4620 fluorescence intensity (a.u.)
41 | GTTACTGCATGATTTGCTAGATGTATTTTATGACAACAGACGGAGTCACCTAGTGCAG | 12900 fluorescence intensity (a.u.)
42 | TCTGATTTATAATGTCATAGGATCCGGATAGTATCATAGGCGGAGTCACCTAGTGCAG | 30800 fluorescence intensity (a.u.)
43 | ATATTCTGTTGATTATTCTTTATTGCAGGTGTATTCTTGACGGAGTCACCTAGTGCAG | 3660 fluorescence intensity (a.u.)
44 | AATGATTGACAATACTTAGATTTCTTCCCTTAATTACATCCGGAGTCACCTAGTGCAG | 54400 fluorescence intensity (a.u.)
45 | TCTGTGATTTGATGTTTGCCTGTGTTGTGTGCAAAGTTTTCGGAGTCACCTAGTGCAG | 23900 fluorescence intensity (a.u.)
46 | GACGCAGATGATTACAAGACATTTACTGCTTTTCTGCCTACGGAGTCACCTAGTGCAG | 7090 fluorescence intensity (a.u.)
47 | CTAATTAGTCCATGATTAACCATAAGTGCTACAGTAACCCCGGAGTCACCTAGTGCAG | 36900 fluorescence intensity (a.u.)
48 | GTTAAATTGGTTTTGGTTGGATCCCTCTATCCGGTATCTGCGGAGTCACCTAGTGCAG | 39600 fluorescence intensity (a.u.)
49 | TGATTACTGCATTGATCCGACCAATCAATTCGAAGCATACCGGAGTCACCTAGTGCAG | 3790 fluorescence intensity (a.u.)
50 | CTATTTTCTAGTAATTAATTATTCCAAAATTAGAGATACACGGAGTCACCTAGTGCAG | 15500 fluorescence intensity (a.u.)
51 | AAACTAATTAAGAACTGTACCATTGGATCATATATGAGGCCGGAGTCACCTAGTGCAG | 20400 fluorescence intensity (a.u.)
52 | ATTTTAAATAGATAAATGAGGAGAGAGAAAGGCAGCGGGCCGGAGTCACCTAGTGCAG | 8150 fluorescence intensity (a.u.)
53 | ATAAAGCATAATTGATGTTACCTCTTTCTCTTCTGTGACCCGGAGTCACCTAGTGCAG | 21400 fluorescence intensity (a.u.)
54 | TGGTTAATTTAGCTTCTCCCCTTTCTCGTGTCCTTAGATTCGGAGTCACCTAGTGCAG | 10200 fluorescence intensity (a.u.)
